From PubChem BioAssay AID1159614 (National Center for Advancing Translational Sciences (NCATS), 2016)
In all, about 45,000 compounds went through this assay and about 65 (0.1%) were called active. Calls come from the whole dose curve; as a rule, active = well fitted activation curve with a large enough effect; inconclusive = small, poorly fitted or top-dose-only effect; inactive = no such curve, though single readings can be large or run the other way. The list shows a part of the results.

Target: Galactocerebrosidase (Homo sapiens) (UniProt P54803)
Assay: A Novel Cell-Based Assay to Identify Small Molecules for B -Galactocerebrosidase; note: 0% is about no effect; nearly all actives have a fitted effect of over 65% in size
Settings: 145M-Twi-hGALC-G270D cells (Twitcher mouse brain line with human GALC G270D), HMU-beta-Gal fluorescence, 48 h; series mostly up to 57.5 µM; activation: at the top concentration
Method in brief: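 Live 145M-Twi cells (Twitcher mouse brain-derived, GALC-null) stably expressing human GALC-G270D, with a wild-type GALC line, were compound-treated. Residual GALC activity was then read as fluorescence from 0.1 mM final HMU-β-gal at pH 5.2; higher signal means activation.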

UniProt P54803, sequence (P54803 whole entry, looked up): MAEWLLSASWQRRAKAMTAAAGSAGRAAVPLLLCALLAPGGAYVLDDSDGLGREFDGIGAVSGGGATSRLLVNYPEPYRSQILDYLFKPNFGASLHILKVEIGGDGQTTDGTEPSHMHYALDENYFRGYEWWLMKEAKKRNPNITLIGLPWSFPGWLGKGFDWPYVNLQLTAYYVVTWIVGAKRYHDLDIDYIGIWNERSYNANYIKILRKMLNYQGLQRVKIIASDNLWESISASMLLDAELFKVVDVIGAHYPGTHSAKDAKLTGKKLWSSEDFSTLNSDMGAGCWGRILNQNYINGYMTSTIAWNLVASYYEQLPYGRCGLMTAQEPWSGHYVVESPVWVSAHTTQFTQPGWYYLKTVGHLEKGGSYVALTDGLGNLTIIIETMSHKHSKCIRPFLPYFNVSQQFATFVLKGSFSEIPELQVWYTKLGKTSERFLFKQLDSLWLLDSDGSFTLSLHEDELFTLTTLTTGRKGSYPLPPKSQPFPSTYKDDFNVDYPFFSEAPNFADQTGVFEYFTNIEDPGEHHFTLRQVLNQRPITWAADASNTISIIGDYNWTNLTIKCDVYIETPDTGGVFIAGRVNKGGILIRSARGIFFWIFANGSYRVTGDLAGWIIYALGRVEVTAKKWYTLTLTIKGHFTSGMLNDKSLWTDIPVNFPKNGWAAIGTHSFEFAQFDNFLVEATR

| Structure (SMILES) | activation |
| --- | --- |
| Cc1ccccc1Cn1ccn(-c2ccc(F)c(F)c2)c(=O)c1=O | inactive: -11.8% |
| CN(Cc1nc(-c2ccc(Cl)cc2)no1)S(=O)(=O)c1ccccc1 | inactive: -10.9% |
| CC(C)c1ccc(C2CC(=O)Nc3cc4c(cc32)OCCO4)cc1 (stereo not drawn) | inactive: -34.6% |
| CCOC(=O)N1CCC(NC(=O)c2ccc3c(c2)N(Cc2ccccc2C)C(=O)c2ccccc2S3=O)CC1 (stereo not drawn) | inactive: -2.95% |
| CCOc1ccccc1-c1noc(CSc2nnc(-c3ccccc3)n2-c2ccc(OC)cc2)n1 | inactive: -19.7% |
| CCCN1CCc2nc(N3CCN(C)CC3)ncc2C1 | inactive: -7.07% |
| Cc1ccc2nc(-c3ccccn3)c(Nc3ccccc3C)n2c1 | inactive: -16% |
| CCN(CC)c1nn2c(=O)c(C(=O)NCCc3cccc(C)c3)cnc2s1 | inactive: -11.6% |
| CCN1C(=O)C(O)(c2c[nH]c3ccccc23)c2cc(Br)ccc21 (stereo not drawn) | inactive: -9.71% |
| COc1ccc(S(=O)(=O)NCCc2csc3nc(-c4ccccc4)nn23)cc1OC | inactive: -1.1% |
| Fc1cccc(CSc2ccc(-c3cccs3)nn2)c1 | inactive: -18% |
| Cc1cccc(Cn2c(=O)n(-c3ccccc3C)c(=O)c3c2c2cc(C)ccc2n3C)c1 | inactive: -5.99% |
| CCc1cccc(C)c1NS(=O)(=O)c1ccc2c(c1)CC(C)N2C(=O)C1CC1 (stereo not drawn) | inactive: -9.49% |
| COc1ccc(-c2noc(CSc3nc4ccccc4[nH]3)n2)cc1OC | inactive: -15.7% |
| CC(C)Cc1ccc(C(C)C(=O)O)cc1 (stereo not drawn) | inactive: -6.3% |
| CCC(=O)Nc1nnc(S(=O)(=O)N2c3ccccc3CC2C)s1 (stereo not drawn) | inactive: -2.1% |
| Cc1csc2nc(COC(=O)c3ccc(NC(=O)C(C)Oc4ccccc4)cc3)cc(=O)n12 (stereo not drawn) | inactive: -8.27% |
| Cc1ccc(CNc2nc3ccccc3n3cnnc23)cc1 | inactive: -0.629% |
| CCC(=O)N1c2ccccc2CC1C(=O)NCc1cc(Br)ccc1OC (stereo not drawn) | inactive: -16.1% |
| Cc1ccc2oc3c(c(=O)c2c1)C(c1ccc(O)cc1)N(c1nc(C)c(C)s1)C3=O (stereo not drawn) | inactive: -12.4% |
| O=C(NCc1cccc(F)c1)c1ccccc1NC(=O)c1nsc2ccccc12 | inactive: 2.49% |
| Cc1cccc(NC(=O)C2CCCN2S(=O)(=O)c2ccc3c(c2)n(C)c(=O)c(=O)n3C)c1 (stereo not drawn) | inactive: 10.6% |
| Cc1cc(C)c2oc(-c3cccc(NC(=O)c4ccc(-c5cccc([N+](=O)[O-])c5)o4)c3)nc2c1 | inactive: 0.308% |
| COc1ccc(CN2CCN(C(c3ccc(F)cc3)c3ccc(F)cc3)CC2)c(OC)c1OC | inactive: -13.6% |
| COc1ccc(NC(=O)c2cnc(N3CCCC3)nc2)cc1OC | inactive: -2.16% |
| CCCC1=Nc2cc(C(=O)N3CCC(C(=O)OCC)CC3)ccc2Sc2ccccc21 | inactive: -4.4% |
| COc1ccc(-n2c(SCC(=O)NCc3ccc(F)cc3)nc3c([nH]c4ccccc43)c2=O)cc1 | inactive: -17.5% |
| O=C(CCSCc1cccc(Cl)c1)NCCc1ccc(Cl)cc1 | inactive: -10.4% |
